Measured values reported in PubChem BioAssay (Tox21).
“And” between values parts separate entries of the source, which are not always exact repeats. Identical values can stand only once. Inconclusive results, whose numbers are uncertain, are shown with a selection of clear calls. Potencies beside an inconclusive call are fits to weak or partial responses and may not hold up. The source made the active and inactive calls. Unless noted, calls come from the whole dose curve; as a rule, active = well fitted cell-killing curve with a large enough effect in the repeat runs; inconclusive = weak or mixed curves, or effect the other way; inactive = no such curve, though single readings can be large or run the other way.

Molecular target: Progesterone receptor (Homo sapiens) (UniProt P06401)
Test: qHTS assay to identify small molecule agonists of the progesterone receptor (PR) signaling pathway (AID 1346784; calls by dose curve; note: nearly all actives have a fitted effect of over 30% in size)
Conditions: PR-UAS-bla HEK293T, beta-lactamase FRET ratio, 16 h; activation: at 92.4 µM (top of the series) unless noted
In short: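 Compounds were tested for PR agonism in HEK 293T cells bearing a beta-lactamase gene under UAS control. Treatment lasted 16 hr at 37C; signal came from fluorescence of a FRET substrate.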
% is set by controls: 0 for no effect and ±100 for the full control effect; potency is the fitted concentration of half-maximal effect; tags give direction and shape of the fitted curve or compound fluorescence and quenching.

UniProt P06401, sequence (P06401 whole entry, looked up): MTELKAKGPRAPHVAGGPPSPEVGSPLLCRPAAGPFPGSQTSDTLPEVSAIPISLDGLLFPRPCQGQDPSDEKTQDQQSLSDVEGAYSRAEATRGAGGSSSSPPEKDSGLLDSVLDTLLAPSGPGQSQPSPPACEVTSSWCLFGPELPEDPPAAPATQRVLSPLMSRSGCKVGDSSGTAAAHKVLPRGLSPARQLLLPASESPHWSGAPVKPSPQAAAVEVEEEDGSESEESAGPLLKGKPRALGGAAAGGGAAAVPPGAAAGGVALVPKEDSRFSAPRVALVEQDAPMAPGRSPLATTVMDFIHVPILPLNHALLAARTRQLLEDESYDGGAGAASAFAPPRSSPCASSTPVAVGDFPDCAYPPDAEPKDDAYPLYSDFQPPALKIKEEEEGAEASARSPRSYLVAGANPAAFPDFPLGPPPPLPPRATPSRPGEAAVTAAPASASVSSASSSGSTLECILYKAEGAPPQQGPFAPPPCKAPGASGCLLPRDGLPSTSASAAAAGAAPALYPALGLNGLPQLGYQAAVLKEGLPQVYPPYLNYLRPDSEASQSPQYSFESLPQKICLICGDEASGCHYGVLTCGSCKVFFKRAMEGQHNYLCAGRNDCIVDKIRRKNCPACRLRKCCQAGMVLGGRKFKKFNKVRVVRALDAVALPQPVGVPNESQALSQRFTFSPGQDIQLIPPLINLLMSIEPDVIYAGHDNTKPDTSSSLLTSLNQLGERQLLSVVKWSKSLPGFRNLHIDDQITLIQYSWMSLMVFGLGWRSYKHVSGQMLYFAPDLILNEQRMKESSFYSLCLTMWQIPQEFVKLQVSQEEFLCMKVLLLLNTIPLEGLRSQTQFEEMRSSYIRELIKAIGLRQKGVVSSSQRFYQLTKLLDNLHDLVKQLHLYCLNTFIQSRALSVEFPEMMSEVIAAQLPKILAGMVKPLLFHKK

For `Cc1cc(C)c(N=Nc2c(O)c(S(=O)(=O)O)cc3cc(S(=O)(=O)O)ccc23)cc1C`, which Potency is on record?
The Potency was inconclusive: 121 nM [falling, single point].

With `COc1ccc(N=[N+]([O-])c2ccc(OC)cc2)cc1` as the compound, how does the activation read?
Its activation is inconclusive: 0.205%.

Which Potency does the source give for `CCCCCCCCCCCCCC[N+](C)(C)C` here?
The Potency was inconclusive: 41.8 µM [cytotoxic, partial curve, poor fit] and inconclusive: 68.5 µM [cytotoxic, single point].

Molecular target: Progesterone receptor (Homo sapiens) (UniProt P06401)
Test: qHTS assay to identify small molecule antagonists of the progesterone receptor (PR) signaling pathway (AID 1346795; active = well fitted inhibition curve with a large enough effect in the signal ratio in the repeat runs, not every such curve was filed as active; inconclusive = weak or mixed curves; the % refers to the signal ratio)
Conditions: PR-UAS-bla HEK293T, beta-lactamase FRET ratio, 16 h; activity change, negative = inhibition: at 92.4 µM (top of the series) unless noted
In short: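 In HEK293T cells bearing the PR-UAS-bla reporter, compound effects on promegestone-driven (1 nM) beta-lactamase expression are assessed after 16 hr using a fluorescent FRET substrate incubated 2 hr at room temperature.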

Which activity change, negative = inhibition does the source give for `CCCOC(=O)c1cc(O)c(O)c(O)c1` here?
Its activity change, negative = inhibition is inconclusive: -16.2%.

Which activity change, negative = inhibition does the source give for `O=C(O)c1cc(O)c2c(c1)C(=O)c1cccc(O)c1C2=O` here?
Its activity change, negative = inhibition is inconclusive: 15.5%.

For `CC(=O)c1ccc2c(c1)Cc1ccccc1-2`, which Potency is on record?
The Potency was active: 12.2 µM.

With `CCCC(C(=O)OCCN(CC)CC)(c1ccccc1)c1ccccc1` as the compound, how does the activity change, negative = inhibition read?
Its activity change, negative = inhibition is inconclusive: -29.1% [at 42.5 µM].

Which Potency does the source give for `CCC1=C[C@@H]2CN(C1)Cc1c([nH]c3ccccc13)[C@@](C(=O)OC)(c1cc3c(cc1OC)N(C)[C@H]1[C@@](O)(C(=O)OC)[C@H](OC(C)=O)[C@]4(CC)C=CCN5CC[C@]31[C@@H]54)C2` here?
Its Potency is active: 0.944 µM.

Which Potency does the source give for `O=C(c1ccccc1)c1ccc(O)cc1O` here?
Its Potency is active: 15.7 µM and active: 19.3 µM.

For `Nc1ccc(Cl)cc1[N+](=O)[O-]`, which Potency is on record?
Its Potency is inconclusive: 60.5 µM.

Which Potency does the source give for `CCN(Cc1cccnc1)C(=O)c1cccc(Cl)c1[C@]1(C)C(=O)N(Cc2ccc(OC)cc2OC)c2ccc(Cl)cc21` here?
Its Potency is active: 16.1 µM.

With `COc1ccc(Nc2ccc(OC)cc2)cc1` as the compound, how does the Potency read?
Its Potency is inconclusive: 69.8 µM [rising, single point].

Which activity change, negative = inhibition does the source give for `O=C(N/N=C/c1ccc([N+](=O)[O-])o1)c1ccc(O)cc1` here?
Its activity change, negative = inhibition is inconclusive: -23.9% [at 42.5 µM].

With `CCCCN(CCCC)CC(O)c1cc(Cl)cc2c1-c1ccc(Cl)cc1/C2=C/c1ccc(Cl)cc1` (stereo unspecified) as the compound, how does the “activity change, negative = inhibition” value read?
Its value is inactive: -20.8% [at 42.5 µM].

Which Potency does the source give for `CCCCc1nc2cccnc2n1Cc1ccc(-c2ccccc2-c2nnn[nH]2)cc1` here?
The Potency was inconclusive: 38.6 µM [rising, partial curve].

Which Potency does the source give for `O=C(N/N=C/c1ccccc1O)c1ccncc1` here?
Its Potency is active: 10.6 µM.

Which activity change, negative = inhibition does the source give for `CCCC1O[C@@H]2C[C@H]3[C@@H]4CCC5=CC(=O)C=C[C@]5(C)[C@H]4[C@@H](O)C[C@]3(C)[C@]2(C(=O)CO)O1` (stereo partly specified) here?
The activity change, negative = inhibition was inconclusive: -4.8% and inconclusive: 5.99%.

For `CCOc1ccc(N)c([N+](=O)[O-])c1`, which activity change, negative = inhibition is on record?
The activity change, negative = inhibition was inconclusive: -52.4%.

With `COc1ccc(C(=O)CC(=O)c2ccc(C(C)(C)C)cc2)cc1` as the compound, how does the activity change, negative = inhibition read?
Its activity change, negative = inhibition is inconclusive: -42.2%.

With `Cc1cnc(NC(=O)C2=C(O)c3ccccc3S(=O)(=O)N2C)s1` as the compound, how does the activity change, negative = inhibition read?
The activity change, negative = inhibition was inconclusive: 2.57% [at 42.5 µM].

For `Nc1c(NC/C=C\COc2cc(CN3CCCCC3)ccn2)c(=O)c1=O`, which activity change, negative = inhibition is on record?
The activity change, negative = inhibition was inactive: 9.62% [at 18.9 µM].

For `CN1CCC(N(Cc2cccs2)c2ccccc2)CC1`, which activity change, negative = inhibition is on record?
The activity change, negative = inhibition was inconclusive: -59.1% [at 42.5 µM].

For `Cc1oc(-c2ccccc2)nc1CCC(=O)c1ccc(CC2SC(=O)NC2=O)cc1` (stereo unspecified), which Potency is on record?
The Potency was inconclusive: 13.3 µM [rising, partial curve].

Which Potency does the source give for `CCCCCCOC(=O)c1ccccc1` here?
Its Potency is inconclusive: 43.3 µM [partial curve].

Which activity change, negative = inhibition does the source give for `C[n+]1ccn(Cc2ccccc2)c1` here?
Its activity change, negative = inhibition is inconclusive: -0.146%.

With `COC1=C(OC)C(=O)C(CCCCCCCCCCO)=C(C)C1=O` as the compound, how does the Potency read?
Its Potency is inconclusive: 33.5 µM [rising, single point].

With `CCc1nn(C2CCCCC2)c2cc(C3(C#N)CCC(C(=O)O)CC3)ccc12` (stereo unspecified) as the compound, how does the Potency read?
Its Potency is inconclusive: 34.4 µM [falling, partial curve].

For `O=C1c2ccccc2Cc2ccccc21`, which activity change, negative = inhibition is on record?
Its activity change, negative = inhibition is inconclusive: -26.7%.

Which Potency does the source give for `CCCCC(CC)CN1C(=O)C2C3C=CC(C3)C2C1=O` (stereo unspecified) here?
Its Potency is active: 34.4 µM.

For `Clc1ccc(C(Cn2ccnc2)OCc2ccc(Sc3ccccc3)cc2)c(Cl)c1` (stereo unspecified), which Potency is on record?
The Potency was active: 29.8 µM.

For `O=C(c1ccc(F)cc1)C1CCN(CCn2c(=S)[nH]c3ccccc3c2=O)CC1`, which Potency is on record?
Its Potency is inconclusive: 15 µM [rising, partial curve, poor fit].

Which Potency does the source give for `CCCCOc1ccc(CC(=O)NO)cc1` here?
Its Potency is inconclusive: 11.9 µM.

System: not listed separately
Test: qHTS assay to identify small molecule antagonists of the progesterone receptor (PR) signaling pathway - cell viability counter screen (AID 1346798); note: nearly all actives have a fitted effect of over 50% in size
Conditions: PR-UAS-bla HEK293T viability, CellTiter-Glo luminescence, 16 h; series mostly up to 92.4 µM; activity change, negative = cytotoxicity: at the top concentration
In short: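 Following a 4 hr attachment, PR-UAS-bla HEK293T cells in charcoal-stripped FBS medium were exposed to compounds with R5020 for 16 hr; CellTiter-Glo was added and luminescence read after 30 min at room temperature.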

With `CCCOC(=O)c1cc(O)c(O)c(O)c1` as the compound, how does the Potency read?
Its Potency is inconclusive: 60.8 µM [rising, single point].

With `CCC1=C[C@@H]2CN(C1)Cc1c([nH]c3ccccc13)[C@@](C(=O)OC)(c1cc3c(cc1OC)N(C)[C@H]1[C@@](O)(C(=O)OC)[C@H](OC(C)=O)[C@]4(CC)C=CCN5CC[C@]31[C@@H]54)C2` as the compound, how does the Potency read?
Its Potency is inconclusive: 0.0596 µM [rising, full curve].

Which Potency does the source give for `COc1ccc(Nc2ccc(OC)cc2)cc1` here?
Its Potency is inconclusive: 62.3 µM [rising, partial curve, poor fit].

For `Cc1cc(C)c(N=Nc2c(O)c(S(=O)(=O)O)cc3cc(S(=O)(=O)O)ccc23)cc1C`, which activity change, negative = cytotoxicity is on record?
The activity change, negative = cytotoxicity was inactive: 1.98% [at 8.39 µM].

With `COc1ccc(N=[N+]([O-])c2ccc(OC)cc2)cc1` as the compound, how does the Potency read?
The Potency was inconclusive: 27 µM [rising, full curve, poor fit].

With `CCCCN(CCCC)CC(O)c1cc(Cl)cc2c1-c1ccc(Cl)cc1/C2=C/c1ccc(Cl)cc1` (stereo unspecified) as the compound, how does the “activity change, negative = cytotoxicity” value read?
The value was inactive: -8.33% [at 42.5 µM].

Which Potency does the source give for `O=C(N/N=C/c1ccccc1O)c1ccncc1` here?
The Potency was inconclusive: 3.76 µM [rising, partial curve].

For `CCCCCCCCCCCC[N+](C)(C)C`, which Potency is on record?
The Potency was inconclusive: 76.7 µM [cytotoxic] and inconclusive: 68.6 µM [cytotoxic, single point] and inconclusive: 38.6 µM [cytotoxic, partial curve, poor fit].

With `COc1ccc(C(=O)CC(=O)c2ccc(C(C)(C)C)cc2)cc1` as the compound, how does the Potency read?
The Potency was inconclusive: 26.2 µM [rising, single point].

With `Cc1cnc(NC(=O)C2=C(O)c3ccccc3S(=O)(=O)N2C)s1` as the compound, how does the Potency read?
The Potency was “inactive”.

Which “activity change, negative = cytotoxicity” value does the source give for `CC(=O)Nc1ncc([N+](=O)[O-])s1` here?
The value was inactive: 1.11% [at 42.5 µM].

For `CN(Cc1ccc(C(C)(C)C)cc1)Cc1cccc2ccccc12`, which Potency is on record?
Its Potency is inconclusive: 13.3 µM [cytotoxic, partial curve].

Which Potency does the source give for `Cc1ccc(O)c([C@H](CCN(C(C)C)C(C)C)c2ccccc2)c1` here?
Its Potency is inconclusive: 2.98 µM [cytotoxic, single point].

For `CN1CCC(N(Cc2cccs2)c2ccccc2)CC1`, which Potency is on record?
The Potency was active: 23.7 µM.

Which “activity change, negative = cytotoxicity” value does the source give for `Cc1oc(-c2ccccc2)nc1CCC(=O)c1ccc(CC2SC(=O)NC2=O)cc1` (stereo unspecified) here?
The value was inactive: 21.4% [at 42.5 µM].

Which Potency does the source give for `CCCCCCOC(=O)c1ccccc1` here?
Its Potency is active: 15.4 µM.

For `COC1=C(OC)C(=O)C(CCCCCCCCCCO)=C(C)C1=O`, which Potency is on record?
Its Potency is inconclusive: 18.8 µM [cytotoxic, partial curve, poor fit].

For `Oc1ccc(CCNCCCCCCNCCc2ccccc2)cc1O`, which “activity change, negative = cytotoxicity” value is on record?
The value was inactive: -8.94% [at 42.5 µM].

For `CCc1nn(C2CCCCC2)c2cc(C3(C#N)CCC(C(=O)O)CC3)ccc12` (stereo unspecified), which Potency is on record?
Its Potency is inconclusive: 24.3 µM [rising, single point].

With `CCCCCCCCCCCCCC[N+](C)(C)C` as the compound, how does the Potency read?
Its Potency is inconclusive: 52.7 µM [cytotoxic, single point] and active: 48.5 µM and active: 33.5 µM.

Which Potency does the source give for `CCOC(N)=O` here?
The Potency was inconclusive: 0.944 µM [rising, full curve, poor fit].

With `Clc1ccc(C(Cn2ccnc2)OCc2ccc(Sc3ccccc3)cc2)c(Cl)c1` (stereo unspecified) as the compound, how does the Potency read?
The Potency was inconclusive: 33.5 µM [cytotoxic, single point].

Which Potency does the source give for `O=C(c1ccc(F)cc1)C1CCN(CCn2c(=S)[nH]c3ccccc3c2=O)CC1` here?
Its Potency is inconclusive: 9.44 µM [cytotoxic, partial curve, poor fit].

With `CCCCOc1ccc(CC(=O)NO)cc1` as the compound, how does the Potency read?
The Potency was inconclusive: 7.5 µM [cytotoxic, full curve].
